22 molecules from publication PMC12136788 can be followed below.

Sequences and labels used below:
T1: UNK ZnF1-3 (human, UniProt Q9C0B0 31-174)
T1 sequence: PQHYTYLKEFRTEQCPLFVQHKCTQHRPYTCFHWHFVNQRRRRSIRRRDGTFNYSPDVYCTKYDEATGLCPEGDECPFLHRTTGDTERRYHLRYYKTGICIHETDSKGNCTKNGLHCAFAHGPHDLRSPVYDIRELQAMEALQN

B1: chr8:38067834:38067835:+_ENSG00000156735_ENST00000287322|hu_hu|motif|central (ssRNA)
RNA: GGGAGUUCUACAGUCCGACGAUCCUUGGUUAGCAUUUCUUCCAGAAGCCAGUAUGCUUUGUCUGUCUUUUUUCCGGCAAAUUCUUCGGCUUCUUGUUCAAGAUACUGGACCUUCUCCAGCACAUGUAUGAUUUUUUUAAUACUCAACAGAGGAUUGAGCAUCA
B2: 99532797_99534492_1209_3pUTR_ENSMUSG00000041685_ENSMUST00000040340|mouse|control|control (ssRNA)
RNA: GGGAGUUCUACAGUCCGACGAUCCAUCAGGACAUUCCACAGAUUCUGCGUCCUUUUCCUUUUUAAUUAUUCCAGGCAAAGCAAAAGUCUUUCUUUUCCUUGGUUUUAUGCCUUCAACUGCACUAGCAGGGUCACACUCUUCAACAACAGAGGAUUGAGCAUCA
B3: chr2:151796264:151796265:-_ENSMUSG00000027459_ENSMUST00000062047|mus_hu|FALSE|FALSE (ssRNA)
RNA: GGGAGUUCUACAGUCCGACGAUCAGUGCGGCUGGCCUCGGCAGGGGACACGGGGCUGUCACACAAGUCGAUGAGGCUGCUGAGGAUGUCCAGGUCCAGCUGGGGCCGUCGGCAGGGGCCAGGCAGGGCUCGGCGGCUGGGCGUCAACAGAGGAUUGAGCAUCA
B4: chr11:88707168:88707169:-_ENSMUSG00000018428_ENSMUST00000018572|mus_mus|motif|central (ssRNA)
RNA: GGGAGUUCUACAGUCCGACGAUCAAGGGGAAGAGCGAACGCAACUGGAUUGCCAUCUUGGAGUCAGUCGAUGUGAAGUAGCGGCACCUGCUCCUGGGCGACCGUCUAGGCACUCAAUCCUCCCGCCACCGCCCCCUGGCCCCCCAACAGAGGAUUGAGCAUCA
B5: chr4:25749455:25749456:-_ENSG00000091490_ENST00000264868|hu_hu|hu_hu_hu_mus_False|8_38 (ssRNA)
RNA: GGGAGUUCUACAGUCCGACGAUCGCACUAUGACCUCUAGAAAAAUCCACAGGGGGAAAAAAUGUAAACCAAUGUACAAUGUUAUCGCCUUCCCUGUAUUUCCAGGCUUUGUCUCAAGGCUCCUUCUUGCCUUAUAAUUUGGGACAACAGAGGAUUGAGCAUCA
B6: chr2:48035047:48035048:-_ENSG00000138081_ENST00000403359|hu_hu|FALSE|FALSE (ssRNA)
RNA: GGGAGUUCUACAGUCCGACGAUCACAAAAUUGCAGCUUAUUUUCUUCACUUCUGUCCCUUCAAGUCUUUACACAGUAAUGCUAAAACACCCAGCUUUGAGAUCCUGAGUCAAUAUAUUGCCACUUUCUUUUUGGUAGCUUGAGCAACAGAGGAUUGAGCAUCA
B7: chr2:47635579:47635580:+_ENSG00000095002_ENST00000543555|hu_mus|motif|central (ssRNA)
RNA: GGGAGUUCUACAGUCCGACGAUCAACUCGAUACUGGCGAACCAGAAGAAGAUCUUUCACGAAAGACUCAAAGUUCAUCUUGCGGAGCACAACACUCUGCAGGGUCUUACUCCCUGCCGGCCCCAUGUACUUGAUCACGCCCUGCAACAGAGGAUUGAGCAUCA
B8: chr12:70905630:70905631:-_ENSMUSG00000034761_ENSMUST00000110570|mus_mus|motif|central (ssRNA)
RNA: GGGAGUUCUACAGUCCGACGAUCUAAGGCAACCCUGUAUGAAACUGUCGUAAAAUAUUCUGUUAAGGGAAGCUGUAUGUGCGGGACCUCCAACACGCCGCCAGGAACCCCCAAAGCACUACUCUGAGAAGGUAAACAACAUUUCAACAGAGGAUUGAGCAUCA
B9: chr1:46159212:46159213:+_ENSG00000159596_ENST00000372025|hu_mus|hu_hu_hu_mus_True|18_28 (ssRNA)
RNA: GGGAGUUCUACAGUCCGACGAUCUCUGAUCCCUCCCAAGAAAGCUAGGAAACCGGCUCCAUAAGCCAUCUGAGUGAAAGCUAGGACGGGGAUAUAAGACUUUGUUAUCAGCAUGACCAGUGGUGGAGCAGUAAAGGGGAUUAACAACAGAGGAUUGAGCAUCA
B10: chr1:150802451:150802452:-_ENSG00000143437_ENST00000358595|hu_mus|FALSE|FALSE (ssRNA)
RNA: GGGAGUUCUACAGUCCGACGAUCGGCCACUAGGCAGAAUUUGCUCCCCUGGCCAGCCUCUGGGUCAUCAUCUGGGAGGGAGACACCUGCUGGUGGCCAGGCCUUGAUGUAGCCUGUGCAGUGGACUACCACAAAGUGAGGUUCCAACAGAGGAUUGAGCAUCA
B11: chr12:39756943:39756944:-_ENSG00000139116_ENST00000544797|hu_mus|hu_hu_hu_mus_False|68_68 (ssRNA)
RNA: GGGAGUUCUACAGUCCGACGAUCGGUUUGGCUGUUACCCCCAAGGGAAUCCUGCAAGAGUCUUGUCAGCUUGGAAUCUCUGUAAGGGACAUGGGUGGCUCUCUUGCUCUUGUCCCCCAAGGCGCUGAUUACAUUCCCAAGAGCCAACAGAGGAUUGAGCAUCA
B12: chr10:105151994:105151995:-_ENSG00000173915_ENST00000309579|hu_mus|FALSE|FALSE (ssRNA)
RNA: GGGAGUUCUACAGUCCGACGAUCUUCAAAAUCCAUUUAUGUUGCUUUCACAGCUGGAGUUUUCUUAGGCCUUAACUUGAAGUAUAAGACCAGCAAAGCAAUGCCUCCAUAUGUGGCCAGGACACAAUUCAUUCUACCUGUGAGCAACAGAGGAUUGAGCAUCA
B13: 89581173_89583440_721_3pUTR_ENSMUSG00000042572_ENSMUST00000038356|mouse|control|control (ssRNA)
RNA: GGGAGUUCUACAGUCCGACGAUCGUUCUCUUUUCCGAUGCCAUCAUCUUCAGACUUCUUGCCCUCGGCUGGCUCUUCCUCUUUCAUUUCAUAGUGAUCUAGGUCUUCUGUAUCCUCAGGCAUCUCUUCAUCUUCAUCUUCUGACAACAGAGGAUUGAGCAUCA
B14: chr8:38095079:38095080:+_ENSG00000085788_ENST00000520272|hu_hu|motif|central (ssRNA)
RNA: GGGAGUUCUACAGUCCGACGAUCAGAUUCCAGUUUCUUUUUCCAUUCAUCCAAAGUUACAGCAAGCAUGUAAGUUUCCUCGGAAACUUGGCUGAAGCUCUCCGAGUAGGGAACAUACUUAUUGUCUUUGUCCCCCUUGUAAAACAACAGAGGAUUGAGCAUCA
B15: chr1:60041781:60041782:+_ENSMUSG00000041040_ENSMUST00000036540|mus_hu|mus_mus_mus_hu_False|1_48 (ssRNA)
RNA: GGGAGUUCUACAGUCCGACGAUCAAGUUUACAAUAGUAAAGUAAAUGCAGUAGUGGCAAAUUUUCUUUUAUUUUCCUUCACAAAAGAAAACCUCAGUAACCCAGUCCUAGUCUUGGACAUAGUGAAAGCUAUAAAUGCCACUGCAACAGAGGAUUGAGCAUCA
B16: 86333000_86333120_218_5pUTR_ENSG00000068654_ENST00000263857|human|control|control (ssRNA)
RNA: GGGAGUUCUACAGUCCGACGAUCCGUGCGCUUGCGCGCGGAAGCGGUCGCAGGAACGACAUUUACGUGGAUGAGAUCACUUCUACAUGGGGGGGGAACAAAUAGUUGUACGACUCUCUGCUCGCUCUUUUGUUUUGAAAACAACAACAGAGGAUUGAGCAUCA
B17: chr16:20679341:20679342:+_ENSMUSG00000045983_ENSMUST00000044783|mus_hu|FALSE|FALSE (ssRNA)
RNA: GGGAGUUCUACAGUCCGACGAUCGACUGGGGAUGGUGAUGGGGUCGGAGAAGGCGACGAAGGCUGGGAUUCUGAAGGGCUAUGCUCUGGGCCAGGCAGCCCUGGCCGGUCAGCAAUGAUUGCUCCCUGUGACCGGUCAUCUGGCAACAGAGGAUUGAGCAUCA
B18: chr7:149068622:149068623:-_ENSMUSG00000025139_ENSMUST00000001950|mus_hu|mus_mus_mus_hu_False|8_38 (ssRNA)
RNA: GGGAGUUCUACAGUCCGACGAUCGUGAGGCCUCUGAGUGUGGCUUGUGGUCUGUCCUGGGUUAGAGUUGUUAAUAUCACGGAACAUACCAUCUAGAGAGGUUCUGCCCCGCCUGACACCUUCAUUCGCAAGAGGGCAGAAAUCCAACAGAGGAUUGAGCAUCA
B19: chr2:48026839:48026840:+_ENSG00000116062_ENST00000540021|hu_hu|FALSE|FALSE (ssRNA)
RNA: GGGAGUUCUACAGUCCGACGAUCAUAGUGUGCCACUAGAGUCCUAAAUCUCGAACAAUGGCGAUCAUCUGAAAACUGACCUAUGAAAAACUUUCCCAGUGAAGUAUCAACAAAGCACACACCAUAUGCACGAGUAUGGCCAGACAACAGAGGAUUGAGCAUCA
B20: chr1:46159212:46159213:+_ENSG00000159596_ENST00000372025|hu_mus|hu_hu_hu_mus_True|18_48 (ssRNA)
RNA: B9 RNA with G90A, C108U, G110C, C116G
B21: 34923286_34923406_1837_CDS_ENSG00000159140_ENST00000381679|human|control|control (ssRNA)
RNA: GGGAGUUCUACAGUCCGACGAUCCUGCCCCAAAAGCUCCAGUGCUCCAGCUGCCCCAGACUGCCCCGAGAACUCCAGUGCCCCAGCUGCCAUGAGCGGCCCAGGCAACUCUAGUGCCCCAGUUGCCACAGGCUGCCCCGACAACAACAGAGGAUUGAGCAUCA
B22: chr2:235962676:235962677:+_ENSG00000130147_ENST00000392011|hu_mus|FALSE|FALSE (ssRNA)
RNA: GGGAGUUCUACAGUCCGACGAUCUCUUCUGUUUAAAAAAGUGAUUUUAAAUUUAAACGUACAUUUUCAACAAAUAGAAAGCAACACAAUUGGCAACUGGAAGUAGAAAGCCCCUGGGACCUGCCCCUGGAUAGAGGGGAGGGGCAACAGAGGAUUGAGCAUCA

Changes are numbered by the printed parent chain. Some of the results follow.

This experiment deals with T1, UNK ZnF1-3. Description: nsRBNS (natural sequence RNA bind-n-seq); RBNS binding buffer (assumed for nsRBNS): 25 mM Tris pH 7.5, 150 mM KCl, 3 mM MgCl2, 0.01% Triton X-100, 500 ug/ml BSA, 20 U/ml SUPERase-In, 4 C; UNK is unkempt and MSI1 is Musashi-1; names of the RNAs are library labels; protein concentration not given here; high values mean tight binding.
Take B1: the binding signal amounted to 0.25 enrichment R.

As to B2, the binding signal amounted to 0.697 enrichment R.

B3 came in with a binding signal of 0.959 enrichment R.

Consider B4, for which the binding signal came to 1.45 enrichment R.

Turning to B5, the binding signal came to 0.968 enrichment R.

For the molecule B6, the binding signal is 0.734 enrichment R.

B7 displayed a binding signal of 0.841 enrichment R.

The molecule B8 came in with a binding signal of 1.31 enrichment R.

For B9, the binding signal is 1.68 enrichment R.

For the molecule B10, the binding signal is 0.835 enrichment R.

Turning to B11, the binding signal was 0.693 enrichment R.

On to B12, for which the binding signal amounted to 0.745 enrichment R.

With B13, the binding signal was 0.412 enrichment R.

Consider B14, for which the binding signal came to 0.589 enrichment R.

B15: the binding signal was 0.777 enrichment R.

B16 returned a binding signal of 1.15 enrichment R.

Consider B17, for which the binding signal worked out at 0.891 enrichment R.

With B18, the binding signal worked out at 0.795 enrichment R.

As for B19, the binding signal is 1.7 enrichment R.

Regarding B20, the binding signal amounted to 2.03 enrichment R.

In turn, B21 gave a binding signal of 0.989 enrichment R.

Molecule B22 returned a binding signal of 0.707 enrichment R.
